In PubChem BioAssay AID1159614 (National Center for Advancing Translational Sciences (NCATS), 2016):
Hit rate of the full screen: of about 45,000 compounds, about 65 (0.1%) were called active. Calls come from the whole dose curve; as a rule, active = well fitted activation curve with a large enough effect; inconclusive = small, poorly fitted or top-dose-only effect; inactive = no such curve, though single readings can be large or run the other way. Some of the results follow.

These compounds were tested against Galactocerebrosidase (Homo sapiens) (UniProt P54803) (assay: A Novel Cell-Based Assay to Identify Small Molecules for B -Galactocerebrosidase). Conditions: 145M-Twi-hGALC-G270D cells (Twitcher mouse brain line with human GALC G270D), HMU-beta-Gal fluorescence, 48 h; series mostly up to 57.5 µM; activation: at the top concentration.
Chain of UniProt P54803 (P54803 whole entry, looked up): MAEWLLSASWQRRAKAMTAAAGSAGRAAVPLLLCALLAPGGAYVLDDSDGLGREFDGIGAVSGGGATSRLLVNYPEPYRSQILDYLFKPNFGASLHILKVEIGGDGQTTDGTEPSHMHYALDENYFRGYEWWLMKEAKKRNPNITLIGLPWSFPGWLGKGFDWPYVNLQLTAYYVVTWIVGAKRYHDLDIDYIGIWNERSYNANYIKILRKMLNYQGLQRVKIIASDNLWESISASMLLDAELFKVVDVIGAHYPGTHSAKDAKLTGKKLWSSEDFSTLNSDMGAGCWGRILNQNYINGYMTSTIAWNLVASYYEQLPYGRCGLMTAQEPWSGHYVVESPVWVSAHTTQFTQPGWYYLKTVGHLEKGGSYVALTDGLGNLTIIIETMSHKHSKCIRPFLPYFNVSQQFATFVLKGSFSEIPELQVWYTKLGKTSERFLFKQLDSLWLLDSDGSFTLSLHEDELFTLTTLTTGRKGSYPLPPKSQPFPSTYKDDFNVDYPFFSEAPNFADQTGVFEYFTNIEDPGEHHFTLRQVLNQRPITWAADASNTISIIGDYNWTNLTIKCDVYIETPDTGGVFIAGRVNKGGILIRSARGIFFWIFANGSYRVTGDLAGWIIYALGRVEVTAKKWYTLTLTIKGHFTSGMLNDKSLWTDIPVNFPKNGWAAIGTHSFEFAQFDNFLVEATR
Summary of the method: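 Mutant human GALC (G270D), stably expressed in a Twitcher mouse brain cell line lacking endogenous GALC, is measured in live-treated cells via 6-hexadecanoylamino-4-methylumbelliferyl-β-galactoside hydrolysis (0.1 mM final, pH 5.2) with fluorescent detection.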
Note: 0% is about no effect; nearly all actives have a fitted effect of over 65% in size.

activation, inactive:
O=C(NCCN1CCN(c2ccccc2)CC1)Nc1ccccc1Br -18.6%
Cc1cc2oc(=O)c(CC(=O)O)c(C)c2c2occ(-c3ccc(F)cc3)c12 -19.6%
Cc1ccc(N2CC(NC(=O)c3ccc(S(=O)(=O)N4CCOCC4)cc3)CC2=O)cc1C (stereo not given) -18.4%
Cc1cccc(CNC(=O)C2CCN(c3nnc(-n4c(C)ccc4C)s3)CC2)c1 -9.54%
Cn1c(C(=O)NCCc2ccccc2)cc2c(=O)n3ccccc3nc21 3.86%
COc1ccc(CCNC(=O)CCCn2c(=O)c3ccccc3n(Cc3ccc(F)cc3Cl)c2=O)cc1OC -7.94%
O=C(c1ccc2c(c1)OCCO2)N(Cc1cccnc1)c1nc2c(F)cccc2s1 -15.6%
Cc1cccc(-c2noc(CN(C(=O)c3ccccc3Cl)C(C)C)n2)c1 -12.3%
CCCSc1oc(-c2cccs2)nc1S(=O)(=O)c1ccc(Cl)cc1 -33.3%
O=C(c1cnc(N2CCCCC2)c2ccccc12)N1CCN(c2ccccc2F)CC1 -8.67%
Cc1ccc2c(c1)c1c(c(=O)n(Cc3ccccc3)c(=O)n1Cc1cccc(C(F)(F)F)c1)n2C -1.41%
COc1ccc(Cn2c(CNS(=O)(=O)c3ccc4c(c3)CCCC4)nc3cccnc32)cc1 -33.5%
Cc1ccc(CNc2nc3ccccc3c3nc(-c4cccc(C)c4)nn23)cc1 -10.6%
CCOc1ccc(C(=O)NCCc2sc3nc(-c4ccc(Cl)cc4)nn3c2C)cc1OCC -18.1%
CCCc1cc(=O)[nH]c(=S)[nH]1 -8.03%
CC1CCCN(Cc2cn3c(-c4cccc(Br)c4)nnc3s2)C1 (stereo not given) 5.73%
O=C(NCCc1ccc(Cl)cc1)c1ccc(Cn2c(=O)c3cccn3c3cccnc32)cc1 -6.82%
c1csc(C2=NC(c3ccncc3)=Nc3ccccc3N2)c1 -13.8%
CC(=O)N1CCc2cc(CNS(=O)(=O)c3ccc(Br)s3)ccc21 -7.3%
O=C(CSC1=Nc2ccccc2N=C(c2ccc(F)cc2)C1)NCc1ccccc1 -15.7%
Cc1ccc(C)c(N2CCN(C(=O)CCCCCn3c(=O)[nH]c4ccccc4c3=O)CC2)c1 -22.2%
Cc1ccc(C)c(Cn2c(SCC(=O)N(C)Cc3ccccc3)nc3ccccc32)c1 -12.5%
CCc1ccccc1NC(=O)C(=O)NCC(c1cccnc1)N1CCc2ccccc21 (stereo not given) -14%
Cc1ccc(-c2nnc(Nc3ccc(S(N)(=O)=O)cc3)c3ccccc23)cc1S(=O)(=O)N1CCOCC1 -19.8%
CCOc1ccc(-c2cc(C(=O)N3CCN(c4cccc(C)c4)C(C)C3)c3ccccc3n2)cc1 (stereo not given) 16.8%
CN(C(=O)CSc1nc2ccc(NC(=O)CCc3ccccc3)cc2s1)c1ccccc1 -26.2%
Cc1ccccc1OCC(=O)Nc1ccc2nc(SCCOc3ccccc3)sc2c1 -11%
O=C(CSc1nc2ccccc2nc1Cc1ccc(Cl)cc1)N1CCN(c2ccccc2F)CC1 -15.6%
CCc1cccc(NC(c2nnc(-c3ccccc3)o2)c2ccc(F)cc2Cl)c1 (stereo not given) -4%
Cc1ccc(NC(=O)NCC2CCN(Cc3cccc(Cl)c3)CC2)cc1Cl -29.2%
CCCC(=O)Nc1cc(-c2nc3cccnc3s2)ccc1C -9.72%
CCOC(=O)c1ccc(NC(=O)C2CC(=O)N(c3ccc(C(C)C)cc3)C2)cc1 (stereo not given) 1.89%
COc1ccc(C(=O)Nc2ccc3oc(-c4ccc(OC)cc4)nc3c2)cc1 -19.8%
CC(NC(=O)c1cccc(NC(=O)c2nsc3ccccc23)c1)c1ccccc1 (stereo not given) -6.75%
COc1ccc2c(c1)Cc1sc(NC(=O)c3cccc(F)c3)nc1-2 0.0641%
CC(=O)Nc1ccc(S(=O)(=O)NC2(C(F)(F)F)C(=O)Nc3c2c(=O)[nH]c(=O)n3-c2ccc(C)c(C)c2)cc1 (stereo not given) -11.3%
Cc1cccc(NC(=O)CCNS(=O)(=O)c2cccc3nonc23)c1 -7.56%
Cc1ccc(C(=O)CSc2nnc(-c3ccccc3)n2-c2ccccc2)cc1 -6.53%
CCOc1ccc(NS(=O)(=O)c2ccc3[nH]cc(C(=O)NC4CCCC4)c(=O)c3c2)cc1 -14.3%
CCOc1ccc(C(=O)c2cn(Cc3ccc(OC)cc3)c3cc(OC)c(OC)cc3c2=O)cc1 -20.4%
CCN1c2ccccc2-c2nc(SCC(=O)Nc3c(C)cc(C)cc3C)ncc2S1(=O)=O -0.933%
COc1cccc(-n2c(-c3ccco3)nc3c(cnn3-c3ccc(C)cc3)c2=O)c1 -4.72%
O=C(Nc1cc(Cl)ccc1Cl)C1(c2cccs2)CCOCC1 -8.05%
Cc1noc(Cn2c(=O)c3ccccc3n(CC(=O)Nc3ccc(Cl)cc3)c2=O)n1 -17.6%
CCOc1ccc(NC(=O)CSc2ncc3c(n2)-c2cc(Cl)ccc2N(C)S3(=O)=O)cc1 0.186%
Cc1ccc2cccc(NC(=O)C(C)Oc3ccc(C)c(C)c3)c2n1 (stereo not given) -10.6%
Cc1ccc(Nc2c(F)cccc2Cl)c(CC(=O)O)c1 -7.97%
CC1=C(C(=O)NCc2ccc(C)cc2)C2(CCCCC2)OC1=O -17.3%
COc1ccc(N2CCN(C(=O)c3ccc(Nc4nc5ccccc5n5nnnc45)cc3)CC2)cc1 -3.79%
COc1ccc(NC(=O)CCNS(=O)(=O)c2cccc3nonc23)c(OC)c1 -7.17%
CC(=O)N1CCCc2cc(S(=O)(=O)N3CCCC(C(=O)Nc4cccc(F)c4)C3)ccc21 (stereo not given) -19.3%
O=c1c2cc3c(cc2n(Cc2cccc(Cl)c2)c(=O)n1Cc1nc(-c2ccccc2)no1)OCO3 -2.45%
COc1ccc(Nc2ncc(C(=O)Nc3cc(Cl)c(OC)cc3OC)c3ccccc23)cc1 11.7%
CN(C)c1ccc(C(CNS(=O)(=O)c2ccc(F)cc2)N2CCCC2)cc1 (stereo not given) -13.9%
O=C(CCS(=O)(=O)c1nc(-c2ccc3c(c2)OCO3)cc(C(F)(F)F)n1)Nc1ccc(F)c(Cl)c1 -24.4%
O=C(Nc1ncc(Cc2ccc(Cl)cc2)s1)c1ccc2c(c1)CC(c1ccccc1)OC2=O (stereo not given) -6.24%
COc1cccc(C2CC(=O)Nc3c2c(=O)nc2c(C)cccn32)c1 (stereo not given) -10.9%
COc1cccc(CNC(=O)CSc2nc3ccccc3nc2Cc2ccc(C)cc2)c1OC 1.2%
Cc1ccc(NC(=O)CCNS(=O)(=O)c2ccc3c(c2)CCN3C(=O)C2CC2)c(Cl)c1 -36.1%
CCCn1c2ccccc2c2cnn(CC(=O)NCCc3ccc(OCC)c(OCC)c3)c(=O)c21 -11.5%
CCCCNC(=O)CCn1c(=O)c2cccn2c2ccc(F)cc21 -4.56%
CCOc1ccccc1NC(=O)CSc1ncc(S(=O)(=O)c2ccc(C(C)(C)C)cc2)c(=O)[nH]1 -15.2%
CCCCN(Cc1ccco1)C(=O)c1cc2c(s1)-c1c(C)cccc1OC2 -5.44%
Cc1cccc(NC(=O)c2oc3ccc(S(=O)(=O)N(C)C4CCCCC4)cc3c2C)c1C -2.46%
CCOC(=O)c1ccccc1NC(=O)c1nn(-c2ccc(C)cc2)c(=O)n(C)c1=O -8.44%
CCc1ccc(S(=O)(=O)N2CCN(c3ccc(Cl)c(Cl)c3)CC2)cc1 2.43%
CCc1ccccc1NC(=O)Cn1nnc(C(=O)Nc2ccc(OC)c(OC)c2)c1N -6.98%
Cc1ccccc1NC(=O)c1ccc(F)c(S(=O)(=O)N2CCc3ccccc3C2)c1 -9.77%
COC(=O)Cn1ccc2cc(S(=O)(=O)N3CCCCC3)ccc21 -14.6%
Cc1cc(C)c(S(=O)(=O)N2CCC(N3CCN(Cc4ccc(F)cc4)C(=O)C3=O)CC2)c(C)c1 -23.2%
CC(C)c1ccc(NC(=O)c2cnn3c(C(F)F)cc(-c4ccccc4)nc23)cc1 -10.6%
Cc1ccc(C(C)C)c(OCCCn2c(=O)oc3ccc(C)cc32)c1 -5.96%
COc1c(Cl)cc(Cl)cc1/C=C(\C#N)c1nc(-c2ccc(Cl)cc2)cs1 20.8%
CCOCCCNC(=O)Cn1cc2c(n1)-c1c(oc(C(=O)N3CCCC3)c1C)CC2 -3.23%
CCc1ccccc1NC(=O)c1cnn(-c2ccc(F)cc2)c1C1CCNCC1 -12.6%
COc1ccc(-c2cc(-c3ccc4c(c3)NC(=O)CO4)nc3c2COc2ccc(C)cc2-3)cc1 -15%
COc1ccc(-n2ncc(C(=O)NCCCN3CCCCC3)c2C2CCN(C(=O)OC(C)(C)C)CC2)cc1 -6.28%
Cc1c(NC(=O)C(F)(F)F)ccc2nc3c(=O)n(C)c(=O)n(C)c3nc12 -0.948%
COc1cccc(NC(=O)Cn2c(=O)n(CCCCC(=O)NCc3ccc4c(c3)OCO4)c(=O)c3ccccc32)c1 -9.86%
Cc1ccc(C)c(N2CCN(C(=O)C3CCC(CNS(=O)(=O)c4ccc(Br)s4)CC3)CC2)c1 (stereo not given) -14.3%
O=C(O)COc1ccccc1C1Nc2ccccc2-c2nnc(SCc3ccc(Cl)cc3)nc2O1 (stereo not given) -3.6%
CCOc1ccc(-c2cc(CCCC(=O)NCCc3ccc(OC)c(OC)c3)no2)cc1 -29.8%
CC(C)(C)C(=O)Nc1ccc2nc(SCCOc3ccccc3Cl)sc2c1 -40%
Oc1cccc(Nc2cc(-c3ccccc3)ncn2)c1 -9.56%
CCCS(=O)(=O)N1CC(=O)N(c2cc(C)cc(C)c2)C(C)(C(=O)NC2CCCCCC2)C1 (stereo not given) -14.8%
N#Cc1ccc(NC(=O)c2ccc3c(c2)nnn3C2CCCC2)cc1 0.494%
COc1ccc(Nc2oc(-c3ccc(COc4ccccc4)o3)nc2C#N)cc1 -11.4%
CCOC(=O)N1CCC(NC(=O)c2cnn(-c3ccc(C)cc3)c2C2CCN(C(=O)OC(C)(C)C)CC2)CC1 -7.77%
COc1ccc(-n2c(SCc3nc(-c4ccc(Cl)cc4)no3)nnc2-c2ccncc2)cc1 -20.9%
CCC(Sc1ncnc2sc3c(c12)CCCC3)C(=O)OCC(C)C (stereo not given) -11.7%
CCOc1ccccc1C(=O)Nc1cc(-c2nc3cccnc3s2)ccc1C -25.5%
Cc1ccc(CSc2nc3cc(C(=O)NC4CCCC4)ccc3c(=O)n2Cc2ccccc2)cc1 -18.6%
CCc1ccc(NS(=O)(=O)c2ccc(NC(=O)N3CCCC3)cc2)cc1 -21%
Cc1ccc(C)c(CSc2cn(CCNC(=O)c3cccs3)c3ccccc23)c1 -6.66%
CCc1ccc(NC(=O)Cn2nnc(C(=O)Nc3ccc(F)cc3)c2N)cc1 -4.58%
